Experiments:
Type in all cases: cell-based
[1] = test system: PLC/PRL/5 hepatocellular carcinoma cells; assay: Spheroid formation of PLC/PRL/5 cells under low adherence culture conditions; conditions: 6 μg/ml twice daily, 7 days, vs control MAb
Method: PLC/PRL/5 hepatocellular carcinoma cells were seeded in ultra low-adherence 24-well plates (220 cells/well) in serum-free M11 medium (DMEM/F12 with 20 ng/ml EGF, 10 ng/ml FGF, 20 μg/ml insulin, N2 supplement, 2 μg/ml ciprofloxacin, 5 μg/ml gentamycin and 3 μg/ml glucose). Cells were grown for 10 days at 37° C., with the daily addition of control or anti-hPG MAb3 monoclonal antibodies (1 μg/ml). At the end of the experiment, photomicrographs were taken, and the number of spheres per well counted and the mean and standard deviation calculated. In one experiment, PLC/PRL/5 hepatocellular carcinoma cells were seeded in ultra low-adherence 96-well plates (35 cells/well) in serum-free M11 medium (DMEM/F12 with 20 ng/ml EGF, 10 ng/ml FGF, 20 μg/ml insulin, N2 supplement, 2 μg/ml ciprofloxacin, 5 μg/ml gentamycin, and 3 μg/ml glucose). […] At the end of the experiment, photomicrographs were taken, and the number of spheres per well counted and the median and percentile distribution calculated. […] At the end of the experiment, photomicrographs were taken, and the number of spheres per well counted and the median and percentile distribution calculated. […] At the end of the experiment, photomicrographs were taken, and the number of spheres per well counted and the median and percentile distribution calculated.

[2] = test system: liver cancer cells; assay: Neutralizing activity with liver cancer cells; conditions: tests with liver cancer cells
Method: A specific test for assessing whether a particular anti-hPG antibody is neutralizing can be performed as follows. Huh7 hepatocellular carcinoma cells are seeded in ultra low-adherence 24-well plates (500 cells/well) in serum-free M11 medium. Cells are grown at 37° C. and treated twice daily for 7 days with the test anti-hPG antibody or a control, non-specific monoclonal antibody, at antibody concentrations of about 5 μg/mL. At the end of the experiment, photomicrographs are taken, and the number of spheres per well is counted and the median and percentile distribution calculated.

[3] = test system: Huh7 hepatocellular carcinoma cells; assay: Spheroid formation of Huh7 cells under low adherence culture conditions; conditions: 7 days
Method: (§1) In a first experiment, Huh7 hepatocellular carcinoma cells were seeded in ultra low-adherence 24-well plates (500 cells/well) in serum-free M11 medium (DMEM/F12 with 20 ng/ml EGF, 10 ng/ml FGF, 20 μg/ml insulin, N2 supplement, 2 μg/ml ciprofloxacin, 5 μg/ml gentamycin and 3 μg/ml glucose). Cells were treated twice daily for 7 days at 37° C. with vehicle (PBS, Control) or with 3 μg/ml anti-hPG MAb13 monoclonal antibody (anti-hPG MAb 13). At the end of the experiment, photomicrographs were taken, and the number of spheres per well counted and the median and percentile distribution calculated.
as §1, with “second” for “first”, “6” for “vehicle (PBS, Control) or with 3”, “of one of: a control” for “anti-hPG MAb13”, “(Control MAb, (P3X63Ag8, ATCC, Ref TIB-9), anti-hPG MAb13, or anti-hPG MAb16 monoclonal antibodies.” for “(anti-hPG MAb 13).”

[4] = test system: Huh7 hepatocellular carcinoma cells; assay: Spheroid formation of Huh7 cells after antibody pre-treatment under regular adherence; conditions: pre-treatment with 10 μg/mL, then 5 days without treatment, vs control MAb; FIG. 13A-B
Method: In one experiment, 75,000 Huh7 hepatocellular carcinoma cells/well were first seeded into 6-well plates in MEMα with 10% FCS, serum starved overnight and grown for 60 hours in MEMα+0.5% Pannexin H in the presence of 10 μg/mL anti-progastrin monoclonal antibody MAb8 or control monoclonal antibody (P3X63Ag8, ATCC, Ref TIB-9). At the end of treatment, for each treatment group, 500 cells/well were plated into eight wells of ultra low-adherence 24-well plates in 500 μl of serum-free M11 medium containing bFGF and EGF, and grown for a further 5 days without treatment. At the end of this period, photographs were taken, the number of spheres per well was counted, and sphere surface was measured. […] Thereafter, an operator who was blinded to the identity of all wells counted the spheroids.
In a second experiment, 75,000 Huh7 hepatocellular carcinoma cells/well were first seeded into 6-well plates in MEMα with 10% FCS, serum starved overnight and grown for 60 hours in MEMα+0.5% Pannexin H in the presence of 10 μg/mL anti-progastrin monoclonal antibody MAb16 or a control monoclonal antibody (P3X63Ag8, ATCC, Ref TIB-9). […] At the end of this period, photographs were taken, the number of spheres per well was counted, and sphere surface was measured. […] Thereafter, an operator who was blinded to the identity of all wells counted the spheroids.

[5] = 6 μg/ml twice daily, vs control monoclonal antibody, FIG. 12B

B1: MAb13: murine C-terminal anti-hPG monoclonal antibody, hybridoma 2C6C3C7, VH SEQ ID NO:60, VL SEQ ID NO:64 (antibody, V domains shown)
VH: EVQLVESGGGLVQPGGSLKLSCAASGFIFSSYGMSWVRQSPDRRLELVASINTFGDRTYYPDSVKGRFTISRDNAKNTLYLQMTSLKSEDTAIYYCARGTGTYWGQGTTLTVSS
VL: DVVLTQTPLTLSVTIGQPASISCKSSQSLLDSDGKTYLNWLLQRPGQSPKRLIYLVSKLDSGVPDRFTGSGSGTDFTLKISRVEAEDLGVYYCWQGTHFPQTFGGGTKLEIK
[1]; FIG. 15B
  Number of spheroids formed: significantly reduced
[1]; FIG. 15C
  Number of spheroids formed: significantly reduced
[2]
  Neutralizing activity: exhibited neutralizing activity
[3]; 3 μg/ml twice daily, vs untreated (PBS) control, FIG. 12A
  Number of spheroids formed: substantially reduced
[3]; [5]
  Number of spheroids formed: substantially reduced

B2: MAb16: murine N-terminal anti-hPG monoclonal antibody, hybridoma 1E9D9B6, VH SEQ ID NO:61, VL SEQ ID NO:65 (antibody, V domains shown)
VH: QVQLQQSGAELVKPGASVKLSCKASGYTFTSYYMYWVKQRPGQGLEWIGEINPSNGGTNFNEKFKSKATLTVDKSSSTAYMQLSSLTSEDSAVYYCTRGGYYPFDYWGQGTTLTVSS
VL: DVVMTQTPLTLSVTIGRPASISCKSSQSLLDSDGKTYLYWLLQRPGQSPKRLIYLVSELDSGVPDRITGSGSGTDFTLKISRVEAEDLGVYYCWQGTHSPYTFGGGTKLEIK
[2]
  Neutralizing activity: exhibited neutralizing activity
[4]
  Ability to grow as spheroids: significantly reduced
[3]; [5]
  Number of spheroids formed: substantially reduced
